# Source: publication PMC4336329 (PLoS ONE, 2015)
# The campaign covered roughly 310,000 compounds. About 14,000 (4.5%) showed an effect of 50% or more. The effect is printed as a negative number. This is one part of the list.
# Target: human ether-à-go-go-related gene (hERG) potassium channel (human, UniProt Q12809)
# Experiment: primary screen, population patch clamp on CHO cells stably expressing hERG
# 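Further: peak tail current of the secondary pulse compared with the same well before compound.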
# human ether-à-go-go-related gene (hERG) potassium channel, sequence (Q12809 whole entry, looked up): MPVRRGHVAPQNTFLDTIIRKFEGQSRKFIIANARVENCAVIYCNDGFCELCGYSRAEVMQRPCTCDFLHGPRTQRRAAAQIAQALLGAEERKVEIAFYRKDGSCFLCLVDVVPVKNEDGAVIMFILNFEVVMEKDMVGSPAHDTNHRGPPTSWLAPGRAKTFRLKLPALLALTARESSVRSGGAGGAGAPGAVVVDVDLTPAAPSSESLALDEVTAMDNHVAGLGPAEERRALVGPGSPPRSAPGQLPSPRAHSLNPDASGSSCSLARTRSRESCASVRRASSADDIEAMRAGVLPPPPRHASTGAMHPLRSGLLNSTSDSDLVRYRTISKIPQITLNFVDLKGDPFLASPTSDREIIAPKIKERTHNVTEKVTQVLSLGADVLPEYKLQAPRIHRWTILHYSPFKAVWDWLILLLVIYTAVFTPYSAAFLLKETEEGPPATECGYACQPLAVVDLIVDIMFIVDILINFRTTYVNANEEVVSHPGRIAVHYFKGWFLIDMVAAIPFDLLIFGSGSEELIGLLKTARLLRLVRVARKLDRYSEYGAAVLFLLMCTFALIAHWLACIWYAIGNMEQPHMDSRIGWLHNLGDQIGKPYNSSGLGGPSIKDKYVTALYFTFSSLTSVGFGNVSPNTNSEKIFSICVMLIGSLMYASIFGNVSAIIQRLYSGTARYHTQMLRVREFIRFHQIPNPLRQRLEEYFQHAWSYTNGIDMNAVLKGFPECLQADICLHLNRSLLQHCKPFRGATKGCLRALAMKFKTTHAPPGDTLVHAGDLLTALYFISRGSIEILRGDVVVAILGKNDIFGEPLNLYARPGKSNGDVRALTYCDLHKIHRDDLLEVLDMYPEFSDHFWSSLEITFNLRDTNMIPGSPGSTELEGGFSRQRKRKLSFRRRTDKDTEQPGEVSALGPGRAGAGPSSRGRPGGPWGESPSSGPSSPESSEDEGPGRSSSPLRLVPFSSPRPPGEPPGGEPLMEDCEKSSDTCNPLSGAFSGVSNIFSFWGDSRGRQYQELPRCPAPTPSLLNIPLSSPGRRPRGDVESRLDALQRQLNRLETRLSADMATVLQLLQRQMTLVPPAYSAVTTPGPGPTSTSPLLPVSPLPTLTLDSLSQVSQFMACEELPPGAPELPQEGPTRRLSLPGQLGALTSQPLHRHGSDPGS
row,Structure (SMILES),"hERG current change (%, negative = inhibition) at 10uM [%]"
1,CC1(C)CC(O)CC(C)(C)N1CC(O)COCCOc1ccc(Br)cc1 (centres unmarked),-42.4
2,COc1ccc(C2=NO[C@@H]3C(=O)N(Cc4ccccc4)C(=O)[C@H]23)cc1OC,-1.95
3,Cc1cc(C)c2cc(CNC3CCCC3)c(Cl)nc2c1,-23.3
4,COc1ccccc1CCNC1CCC(C(C)(C)C)CC1 (centres unmarked),-32.6
5,CCNc1nc(NC(C)CC)nc(Oc2ccc(=O)[nH]n2)n1 (centres unmarked),0.906
6,CN1CCN(CCC(=O)Nc2ccc(C3CCCC3)cc2)CC1.Cl,-55.1
7,O=C(COc1ccccc1)N=C1SC2CS(=O)(=O)CC2N1c1cccc(F)c1 (centres unmarked),20.2
8,Cc1ccc(S(=O)(=O)N2CCN(C(=O)C(C)Cn3nc(C)c(C)c3C)CC2)cc1 (centres unmarked),5.7
9,Cl.O=C(O)Cc1cnc[nH]1,39.6
10,CC(C)(C)N(Cc1cc2ccccc2[nH]c1=O)C(=O)c1ccco1,8.21
11,C/C(=N\Nc1ccc(F)cc1F)c1cccs1,40.9
12,[O-][n+]1c2ccccc2c2n1CCCN=C2c1ccc(Cl)cc1,-30
13,CCn1c(SCC(=O)NC2=NCCS2)nnc1C(C)NC(=O)c1ccccc1Br (centres unmarked),14.6
14,COC(=O)C1=CN(Cc2ccccc2)C=C(C(=O)OC)C1c1ccc(O)c(OC)c1,-15.2
15,COC(=O)c1cc(S(=O)(=O)N(C)C2CCCCC2)cn1C,1.13
16,O=C(CC(C(=O)O)C1CCCO1)Nc1cccc(C(F)(F)F)c1 (centres unmarked),5.84
17,Cc1ccc(S(=O)(=O)Cc2ccc(C(=O)N3CCN(c4ccccn4)CC3)o2)cc1,-8.71
18,COCCc1nc2ccc(C(=O)N3CCCCC3COC)cc2o1 (centres unmarked),8.82
19,COc1cc(NC(=O)CCc2nnc3ccc(N4CCOCC4)nn23)cc(OC)c1OC,14.2
20,O=C(/C=C/c1cccc([N+](=O)[O-])c1)NC(=S)Nc1cccc(NC(=O)c2ccccc2Cl)c1,8.47
21,CC(Nc1nc(-c2ccc3c(c2)NC(=O)CO3)cs1)c1ccccc1 (centres unmarked),11.5
22,O=C(CSc1nc2scc(-c3ccco3)c2c(=O)n1-c1ccccc1)NCC1CCCO1 (centres unmarked),-32.7

row,Structure (SMILES),"hERG current change (%, negative = inhibition) at 10uM [%]"
1,Cc1ccc(C)c(OC(=O)C2CSC3(C)CCC(=O)N23)c1C (centres unmarked),-7.46
2,COc1ccc(C(=O)NCC2CCCO2)cc1S(=O)(=O)N1CCCc2ccccc21 (centres unmarked),-14.3
3,CCOCCCNC(=S)Nc1ccc2nc(N3CCCC3)cc(C)c2c1,-73.3
4,COc1c(C)cc(C(=O)C2CCCN(Cc3cccc(C)n3)C2)cc1C (centres unmarked),-48.7
5,Br.CN1CCN(CC(=O)c2cc(C(C)(C)C)c(O)c(C(C)(C)C)c2)CC1,-13.3
6,COc1ccc(N2CCN(C(=O)c3ccccc3)CC2)c([N+](=O)[O-])c1,-67.7
7,O=C(COc1ccc2ccc(=O)oc2c1)Nc1cccc(S(=O)(=O)N2CCCCC2)c1,0.0871
8,Cc1ccccc1OCC(=O)NCCNC(=O)c1ccccn1,6.12
9,O=C1C=C(c2ccc(C(=O)O)cc2)C[C@@H](c2ccc3c(c2)OCO3)C1,9.47
10,Cc1cc(C)c(S(=O)(=O)N2CCN(C(=O)C3COc4ccccc4O3)CC2)c(C)c1 (centres unmarked),-17
11,O=C(CCn1cccc1)Nc1cc(F)ccc1F,23.3
12,CCOc1ccc(C2C(C(N)=O)=C(C)Nc3ncnn32)cc1OC (centres unmarked),3.16
13,Cn1nnnc1Sc1ncnc2scc(-c3ccc[nH]3)c12,-9.69
14,CN1C(=O)/C(=C/c2cn(CC(=O)NCc3ccco3)c3ccccc23)NC1=S,15.1
15,CO/N=C/NC(=O)c1ccc([N+](=O)[O-])c(CS(=O)(=O)c2ccc(Cl)cc2)c1,-12.5
16,COCCNC(=O)c1cc2c(=O)[nH]c3ccccc3c2s1,15.7
17,Cn1cnnc1SCC(=O)c1cc2ccccc2o1,-2.67
18,Br.N=c1n(CC(=O)c2ccc([N+](=O)[O-])cc2)c2ccccc2n1Cc1ccc(Cl)cc1,-14.3
19,COc1ccc(Nc2nnc(SCc3cc([N+](=O)[O-])cc4c3OCOC4)s2)cc1,8.43
20,CN(C)C(=O)c1nc2ccccc2s1,15.8
21,CCOC(=O)c1cnc(SCC(=O)Nc2cccc(OC)c2)nc1N,-10.5
22,CCOc1ccc(NC(=S)N2CCCN(Cc3cccc(Cl)c3)C2)cc1,-17.6

row,Structure (SMILES),"hERG current change (%, negative = inhibition) at 10uM [%]"
1,O=C(NCc1nnnn1-c1ccc(Cl)cc1)c1ccc(Br)o1,-22.2
2,Cc1cc(SCC(=O)N(C)CC(=O)Nc2ccc(F)cc2)nc2ccccc12,-28.7
3,Cc1noc(C)c1COC(=O)c1ccc2ccccc2n1,-11.9
4,COC(=O)CCc1c(C)c(C(=O)c2cccc(OC)c2OC)c2ccccn12,-13.3
5,Cn1ncc(Cl)c1C(=O)NCc1ccc(Cl)cc1,-13.3
6,CN1CCC(N(C)C(=O)CNC(=O)c2ccc(C(C)(C)C)cc2)CC1,22.6
7,CC(=O)c1ccc(N2CCN(C(=O)c3cc(C)on3)CC2)cc1,-41.8
8,CCOc1ccc(N2CC(NS(=O)(=O)c3cccnc3)CC2=O)cc1 (centres unmarked),-9.94
9,O=C(O)C1=C[C@@H](c2ccccc2)C[C@@H](OCc2ccc(CO)cc2)O1,18.6
10,C#CCn1c(=NC(=O)c2ccco2)sc2cccc(Cl)c21,10.5
11,O=C(c1ccc(=O)oc1)N1CCC(C(O)(c2ccccc2)c2ccccc2)CC1,-29.2
12,COc1ccc(OC)c(-n2c(-c3cc(-c4ccco4)[nH]n3)n[nH]c2=S)c1,1.18
13,NS(=O)(=O)c1ccc(NC(=O)CCC(=O)N2CCOCC2)cc1,13.7
14,COc1ccc(OC)c(CCNC(=O)C2CCN(c3ncnc4c3nc3n4CCCCC3)CC2)c1,-0.169
15,COC(=O)C1=NNC2(C)C(=O)N(c3ccc(C)cc3)C(=O)C12 (centres unmarked),17.7
16,O=C(COc1nsnc1N1CCOCC1)Nc1cccc(Cl)c1,-15.9
17,COCCNC(=O)c1c[nH]c2ccc(S(=O)(=O)N(C)c3ccc(C)c(C)c3)cc2c1=O,-9.12
18,COc1ccc(NC2CCCN(C(=O)CCc3scnc3C)C2)cc1 (centres unmarked),12.2
19,COC(=O)c1[nH]c2cc(OC)ccc2c1NC(=O)CN1CCN(c2cccc(C)c2)C(C)C1 (centres unmarked),-0.154
20,COc1ccc(OC)c(-c2cc(C3CCN(c4ncccc4[N+](=O)[O-])CC3)[nH]n2)c1,-3.29
21,CCCCCCCCCOC1OC(CO)C(O)C(O)C1NC(C)=O (centres unmarked),12.3
22,COCc1nnc(NC(=O)C2CCN(C(=O)c3ccco3)CC2)s1,27.5

row,Structure (SMILES),"hERG current change (%, negative = inhibition) at 10uM [%]"
1,Cc1nc2c3ccccc3nc(NNC(=O)CCC(=O)NCCC(C)C)n2n1,-8.51
2,COc1cc(SC)ccc1C(=O)N1CCc2ccccc21,7.2
3,CCOc1ccc(NC(=S)N2CCN(C/C=C/c3ccccc3)CC2)cc1,-38
4,CCN1C(=O)[C@H]2[C@H]3[C@H](O)[C@H](O)C/C(=N\O[C@H](C)c4cn([C@H](CO)Cc5ccccc5)nn4)[C@@H]3CC[C@H]2C1=O,-2.99
5,COc1ccc(C(=O)NCCc2ccccn2)cc1S(=O)(=O)Nc1ccc(Br)cc1,-21.9
6,O=C(NC(=S)Nc1ccc(CN2CCOCC2)cc1)c1cc2ccccc2o1,11.7
7,CCOc1cc(/C=C2\N=C(SC(C)C(N)=O)N(c3ccc(OC(F)F)cc3)C2=O)ccc1O (centres unmarked),-18.6
8,COc1ccc(C(=O)N2CCC(C(N)=O)CC2)cc1S(=O)(=O)N1CCCC1,5.5
9,O=c1[nH]c(/C=C/c2ccccc2Cl)c([N+](=O)[O-])c(=O)[nH]1,7.06
10,Cc1ccc(CC(=O)Nc2cccc(C#N)c2)cc1,7.1
11,O=C1NC(=Nc2ccccc2Cl)S/C1=C\c1ccc(C(=O)O)cc1,12.4
12,CN1CCN(S(=O)(=O)c2ccc(N3CCN(c4ccccc4Cl)CC3)nc2)CC1,7.3
13,COCCNC(=S)N(Cc1cc2cc(C)ccc2n2nnnc12)C1CCCC1,12.6
14,Cc1ccc(NC(=O)CNS(=O)(=O)c2cccs2)cc1F,-9.47
15,O=C(NC(=S)Nc1ccccc1O)c1ccc(Cl)cc1Cl,14.1
16,CCN(CC)S(=O)(=O)c1ccc2c(c1)N(CC(=O)Nc1ccc(NC(C)=O)cc1)C(=O)CO2,10
17,O=c1c2ccccc2ncn1CCCCOc1ccc(Br)cc1,-19.1
18,CC(Oc1ccc(Cl)cc1)/C(N)=N/O.Cl (centres unmarked),-3.34
19,Cn1c(CCN2CCN(c3ccc(F)cc3)CC2)nc2cc(NC(=O)c3ccco3)ccc21,-63.6
20,O=C(NCCc1nnc2ccc(NCCCN3CCOCC3)nn12)c1ccccc1,1.8
